Inconclusive results and toxic doses are left out. Some entries of the source have several records that differ or are many. This is not the full list of results. An entry can have further records. The values listed for one entry differ for a reason that is not stated; they may come from other doses, times, organisms or constructs than stated.
Test system: CD2F1 mice, L1210 leukemia sc, survival T/C
Experiment: NCI In Vivo Anticancer Drug Screen. Data for tumor model L1210 Leukemia (subcutaneous) in CD2F1 (CDF1) mice
Conditions: endpoint: median survival time, higher = longer survival
Description: The antitumor activity of compounds was measured in mice bearing transplantable tumors. Survival or tumor size were measured and the results are expressed as the measurement made in the treated group (T) divided by the measurement made in the vehicle treated control group (C). The tumor model used in this assay is L1210 Leukemia (subcutaneous) in CD2F1 (CDF1) mice

In the case of O=C1c2ccccc2C(=O)c2c(NCCNCCO)ccc(NCCNCCO)c21, the T/C (dose: 8.0 mg/kg/injection, schedule: Q01DX009 (sc), vehicle: Klucel (hydroxypropylcellulose) (HPC)) is reported as 123 % of control and 150 % of control and the T/C (dose: 16.0 mg/kg/injection, schedule: Q01DX009 (ip), vehicle: saline) is reported as 108 % of control and 151 % of control.
With CC(CN1CC(=O)NC(=O)C1)N1CC(=O)NC(=O)C1 (centres undefined) the T/C (dose: 60.0 mg/kg/injection, schedule: Q01DX009 (ip), vehicle: saline with Tween-80) was 113 % of control and 186 % of control and the T/C (dose: 120.0 mg/kg/injection, schedule: Q01DX009 (sc), vehicle: saline with Tween-80) was 113 % of control, 164 % of control, 165 % of control.
In the case of Nc1ncn(C2OC(CO)C(O)C2O)c(=O)n1 (centres undefined), the T/C (dose: 1.6 mg/kg/injection, schedule: Q01DX009 (sc), vehicle: saline) is reported as 119 % of control, 157 % of control, 168 % of control and the T/C (dose: 7.2 mg/kg/injection, schedule: Q01DX009 (sc), vehicle: saline) is reported as 95 % of control, 151 % of control, 155 % of control.
For CC(=O)OC1COC(NC(=O)N(CCCl)N=O)C(OC(C)=O)C1OC(C)=O (centres undefined), the T/C (dose: 6.0 mg/kg/injection, schedule: Q01DX009 (ip), vehicle: saline with Tween-80) was 118 % of control and 175 % of control.
For Nc1nc2c(c(=O)[nH]1)NC(CCNc1ccc(C(=O)NC(CCC(=O)O)C(=O)O)cc1)CN2 (centres undefined), the T/C (dose: 400.0 mg/kg/injection, schedule: Q01DX Z (ip), vehicle: other) was 115 % of control and 150 % of control.
In the case of CC1CCC(NC(=O)N(CCCl)N=O)CC1 (centres undefined), the T/C (dose: 32.0 mg/kg/injection, schedule: Q01DX009 (ip), vehicle: saline + alcohol) is reported as 108 % of control and 168 % of control.

— PubChem BioAssay AID258 (DTP/NCI, 2004)
